Each structure is given as a SMILES string. Out of some 310,000 compounds screened, about 14,000 (4.5%) showed an effect of 50% or more. The effect is printed as a negative number. Some of the results follow.
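Note: peak tail current of the secondary pulse compared with the same well before compound.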

Sequence of human ether-à-go-go-related gene (hERG) potassium channel (Q12809 whole entry, looked up): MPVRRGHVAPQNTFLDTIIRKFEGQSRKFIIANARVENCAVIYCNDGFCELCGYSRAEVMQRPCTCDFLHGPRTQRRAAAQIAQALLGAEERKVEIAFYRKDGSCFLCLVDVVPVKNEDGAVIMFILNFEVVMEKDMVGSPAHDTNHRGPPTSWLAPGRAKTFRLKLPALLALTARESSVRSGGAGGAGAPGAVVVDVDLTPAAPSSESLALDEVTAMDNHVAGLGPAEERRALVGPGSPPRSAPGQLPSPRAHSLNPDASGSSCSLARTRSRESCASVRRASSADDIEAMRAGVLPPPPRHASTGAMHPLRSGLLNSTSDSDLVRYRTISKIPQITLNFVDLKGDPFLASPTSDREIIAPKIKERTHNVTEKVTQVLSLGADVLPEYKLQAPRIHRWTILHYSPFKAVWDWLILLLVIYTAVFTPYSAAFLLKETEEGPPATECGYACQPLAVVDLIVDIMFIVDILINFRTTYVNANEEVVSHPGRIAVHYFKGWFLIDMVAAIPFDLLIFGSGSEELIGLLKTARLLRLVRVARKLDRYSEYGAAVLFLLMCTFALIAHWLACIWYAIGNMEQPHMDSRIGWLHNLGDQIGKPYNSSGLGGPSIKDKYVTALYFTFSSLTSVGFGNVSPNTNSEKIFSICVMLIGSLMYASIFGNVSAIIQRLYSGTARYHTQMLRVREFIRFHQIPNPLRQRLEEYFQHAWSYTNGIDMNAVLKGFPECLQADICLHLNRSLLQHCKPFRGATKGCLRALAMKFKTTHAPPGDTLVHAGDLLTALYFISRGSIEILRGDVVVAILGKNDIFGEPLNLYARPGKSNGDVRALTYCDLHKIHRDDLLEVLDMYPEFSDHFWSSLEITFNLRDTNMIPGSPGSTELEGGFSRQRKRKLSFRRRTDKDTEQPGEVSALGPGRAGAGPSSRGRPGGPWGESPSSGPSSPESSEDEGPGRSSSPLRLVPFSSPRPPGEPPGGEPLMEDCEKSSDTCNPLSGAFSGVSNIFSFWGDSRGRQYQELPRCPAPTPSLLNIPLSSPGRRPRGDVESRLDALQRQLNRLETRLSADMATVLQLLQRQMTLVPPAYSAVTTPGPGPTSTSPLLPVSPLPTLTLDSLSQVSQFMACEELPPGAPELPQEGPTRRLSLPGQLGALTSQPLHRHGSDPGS

This experiment addresses human ether-à-go-go-related gene (hERG) potassium channel (human, UniProt Q12809). Nature of the experiment: primary screen, population patch clamp on CHO cells stably expressing hERG.
For the molecule `NC(=O)c1c(NC(=O)CSc2nc(N)cc(=O)[nH]2)sc2c1CCCC2`, the “hERG current change (%, negative = inhibition) at 10uM” value came to 8.02%.

Turning to `O=C1CC(c2nc3ccccc3[nH]2)CN1c1cccc(C(F)(F)F)c1` (stereo not drawn), the “hERG current change (%, negative = inhibition) at 10uM” value is listed as -31.3%.

Consider `O=C(O)Cc1ccc2[nH]c3ccc(CC(=O)O)cc3c2c1`, for which the “hERG current change (%, negative = inhibition) at 10uM” value came to 7.37%.

As for `C=C(C)COc1ccc(-c2nc(N)nc(C)c2-c2ccc(OC)cc2)c(O)c1`, the “hERG current change (%, negative = inhibition) at 10uM” value was -1.29%.

As to `CCn1cc(C(=O)NC2CCCCC2)c(=O)c2ccc(C)nc21`, the “hERG current change (%, negative = inhibition) at 10uM” value is listed as 8.6%.

Take `O=C1c2[nH]nc(-c3ccccc3O)c2C(c2ccc(F)cc2)N1CC1CCCO1` (stereo not drawn): the “hERG current change (%, negative = inhibition) at 10uM” value was 5.4%.

As for `COc1ccc(-n2nnnc2SCC(=O)c2cc3ccccc3o2)cc1`, the “hERG current change (%, negative = inhibition) at 10uM” value was -0.612%.

As to `Cc1ccc(/C=N/N2CCN(C3c4ccccc4-c4ccccc43)CC2)o1`, the “hERG current change (%, negative = inhibition) at 10uM” value was 5.1%.

On to `Cc1ccc(NC(=O)Cn2cnc3c(oc4nc5c(cc43)COC(C)(C)C5)c2=O)cc1`, for which the “hERG current change (%, negative = inhibition) at 10uM” value is reported as 6.02%.

As to `O=C(NC1CCCCC1)C1CC(=O)N(c2cccc([N+](=O)[O-])c2)C1` (stereo not drawn), the “hERG current change (%, negative = inhibition) at 10uM” value came out at 7.03%.

As to `CCNc1nc(-c2cc(C)n(Cc3ccco3)c2C)cs1`, the “hERG current change (%, negative = inhibition) at 10uM” value turned out to be 1.21%.

Take `CC1(C)Cc2c(sc3c2c(=N)n(Cc2ccco2)c(=O)n3CC(=O)Nc2cccc(Cl)c2)CO1`: the “hERG current change (%, negative = inhibition) at 10uM” value was found to be 10.6%.

Take `O=C(NNC(=S)Nc1ccc(F)cc1)[C@H]1C[C@@H]1c1ccccc1`: the “hERG current change (%, negative = inhibition) at 10uM” value is recorded as 10.9%.

For `O=C(CCCCCN1C(=O)CCC1=O)Nc1ccc2c(c1)OCO2`, the “hERG current change (%, negative = inhibition) at 10uM” value is reported as 18.2%.

With `CN(CCc1ccccn1)C(=O)c1ccc(OC2CCN(Cc3ccccn3)CC2)cc1`, the “hERG current change (%, negative = inhibition) at 10uM” value is reported as 4.04%.

Regarding `CN(C)c1ccnc(Oc2ccc(F)cc2)c1C#N`, the “hERG current change (%, negative = inhibition) at 10uM” value is reported as -1.84%.

As for `COc1ccc(NC(=S)N2CCC(NC(=O)c3ccc(F)cc3)CC2)cc1`, the “hERG current change (%, negative = inhibition) at 10uM” value is -13%.

On to `COc1cccc(NCc2ccc([N+](=O)[O-])s2)c1`, for which the “hERG current change (%, negative = inhibition) at 10uM” value is on record as -51%.

As for `O=C1CNC(=S)N1CCCn1ccnc1`, the “hERG current change (%, negative = inhibition) at 10uM” value is recorded as -0.318%.

Regarding `O=C(CN1C(=O)NC(Cc2c[nH]c3ccccc23)C1=O)NCCc1ccc(F)cc1` (stereo not drawn), the “hERG current change (%, negative = inhibition) at 10uM” value was found to be 10.1%.

With `Cn1c(=O)oc2cc(S(=O)(=O)N3CCCC(C(=O)Nc4nccs4)C3)ccc21` (stereo not drawn), the “hERG current change (%, negative = inhibition) at 10uM” value is reported as -15.4%.

Take `Cc1cc([N+](=O)[O-])nn1CCCC(=O)Nc1cc(Oc2ccc(F)cc2)cc([N+](=O)[O-])c1`: the “hERG current change (%, negative = inhibition) at 10uM” value was -7.43%.

Turning to `O=C(NC1CCS(=O)(=O)C1)c1cccs1` (stereo not drawn), the “hERG current change (%, negative = inhibition) at 10uM” value is listed as 22.2%.

Take `CC(C(=O)NCCSCc1cccc(Cl)c1)N(c1ccccc1)S(C)(=O)=O` (stereo not drawn): the “hERG current change (%, negative = inhibition) at 10uM” value was -15%.

Regarding `C=CCc1c(NCCO)nc(C)[nH]c1=O`, the “hERG current change (%, negative = inhibition) at 10uM” value amounted to 12.5%.

`COc1ccc(CCN2C(=O)NC(NC(=O)CCc3ccccc3)(C(F)(F)F)C2=O)cc1OC` (stereo not drawn): the “hERG current change (%, negative = inhibition) at 10uM” value is listed as -4.65%.

In the case of `Cl.O=C(NN1CCN(Cc2ccccc2Cl)CC1)c1ccc(Cl)cc1`, the “hERG current change (%, negative = inhibition) at 10uM” value is recorded as -10.6%.

As for `Clc1ccc(-c2nnc(Sc3nc4ccccc4o3)c3ccccc23)cc1`, the “hERG current change (%, negative = inhibition) at 10uM” value is recorded as -2.83%.

With `O=C(CSc1c2c(nc3ccc(Cl)cc13)CCCC2)NCCCN1CCOCC1`, the “hERG current change (%, negative = inhibition) at 10uM” value is on record as -7.17%.

Consider `Cc1cc(C)c2nc(-c3ccccn3)cc(C(=O)n3cccn3)c2c1`, for which the “hERG current change (%, negative = inhibition) at 10uM” value came to 22.9%.

Take `Nc1cc[n+](CC(=O)Nc2ccccc2)cc1.[Cl-]`: the “hERG current change (%, negative = inhibition) at 10uM” value was 9.51%.

Consider `CC(O)[C@H]1CN=C(N)N1CC1CCCCC1` (stereo partly drawn), for which the “hERG current change (%, negative = inhibition) at 10uM” value was -2.41%.

As for `COc1ccc(/C=C2/C(=O)OCc3cc(OC)c(OC)cc32)cc1`, the “hERG current change (%, negative = inhibition) at 10uM” value was -39.3%.

Consider `COC(=O)c1cc(NC(=O)CSc2nncn2C)cc(C(=O)OC)c1`, for which the “hERG current change (%, negative = inhibition) at 10uM” value is -8.96%.

Take `Cc1cc(C)cc(NC(=O)CSc2nc3[nH]ncc3c(=O)[nH]2)c1`: the “hERG current change (%, negative = inhibition) at 10uM” value is 11.8%.

For `COc1ccc(S(=O)(=O)N2CCC(C(=O)Nc3nccs3)CC2)cc1`, the “hERG current change (%, negative = inhibition) at 10uM” value was 8.87%.

With `COc1ccc(CNC(=O)c2cc(=O)c3cc(C)ccc3o2)cc1`, the “hERG current change (%, negative = inhibition) at 10uM” value amounted to 2.27%.

As to `CC1CC(C)(C)CC2(C1)NC(=O)N(CC(=O)N(Cc1ccccc1)c1ccccc1)C2=O` (stereo not drawn), the “hERG current change (%, negative = inhibition) at 10uM” value was -5.59%.

`COc1ccc(N2CCN(C(=O)CNC(=O)c3ccc(Br)o3)CC2)cc1`: the “hERG current change (%, negative = inhibition) at 10uM” value was -6.01%.

On to `CCCCCC(=O)N/N=C/c1ccco1`, for which the “hERG current change (%, negative = inhibition) at 10uM” value came out at 9.79%.

Turning to `CC1CC(C)CN(CC(O)COCc2ccccc2)C1.Cl` (stereo not drawn), the “hERG current change (%, negative = inhibition) at 10uM” value was -7.79%.

As to `O=C(NNC(=S)Nc1ccccc1)c1ccc(O)cc1`, the “hERG current change (%, negative = inhibition) at 10uM” value turned out to be 15.9%.

As for `CCN1CCN(CCCNC(=O)c2cc3sccc3n2CC)CC1`, the “hERG current change (%, negative = inhibition) at 10uM” value is listed as -40.8%.

Consider `O=c1[nH]cnc2sc3c(c12)CCC3`, for which the “hERG current change (%, negative = inhibition) at 10uM” value came to 12.2%.

On to `CC(NC(=O)c1c(F)cccc1Cl)c1ccc(-n2ccnc2)cc1` (stereo not drawn), for which the “hERG current change (%, negative = inhibition) at 10uM” value is recorded as -27%.

(Values after PMC4336329 (PLoS ONE, 2015).)
